Test results as given in PubChem BioAssay AID686979 (National Center for Advancing Translational Sciences (NCATS), 2013).
Hit rate of the full screen: of about 420,000 compounds, about 50,000 (12%) were called active. This list was built around the results that the source calls inconclusive (neither active nor inactive); the mix of calls is not that of the screen. The call rests on the fitted dose curve; in most records, active means well fitted inhibition curve with a large enough effect; inconclusive means small, poorly fitted or top-dose-only effect; inactive means flat fitted curve, though single readings scatter. No potency is given beside an inconclusive call; the fits are too rough.

Assay: qHTS for Inhibitors of human tyrosyl-DNA phosphodiesterase 1 (TDP1): qHTS in cells in presence of CPT; further: nearly all actives have a fitted effect of over 55% in size
Settings: chicken DT40 Tdp1-/-;hTDP1 cells + 20 nM CPT, ATP luminescence, 48 h; activity change, negative = growth inhibition: at 46.2 µM (top of the series) unless noted
In short: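 Cell growth measured by CellTiter-Glo luminescence after a minimum 48 h, 37 C compound exposure with 20 nM CPT in Tdp1-knockout DT40 cells stably expressing hTDP1, seeded 400/well; qHTS titration format.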
On the % scale 0 is the no-effect control and ±100 the full control effect; potency means the concentration at half of the fitted maximal effect; tags describe the fitted curve by direction and shape.

SMILES	Potency	activity change, negative = growth inhibition
COC(=O)c1ccc(NC(=O)c2c(NCc3ccc(OC)c(OC)c3)sc3c2CCCC3)cc1	active: 2.91 µM	–
Cc1nn(-c2ccccc2)c(C)c1/C=N/NC(=O)c1cc(-c2ccc(Br)s2)[nH]n1	active: 2.91 µM	–
CCC(=O)c1ccc(N2CCN(C(=O)COc3ccc(F)cc3)CC2)c(F)c1	active: 20.6 µM	–
COc1ccc(-c2cc3c(=O)n(CC(=O)NCc4ccc(F)cc4)ncn3n2)cc1	inconclusive [inhibitor, partial curve]	–
CCn1nnnc1NCc1ccc(N2CCCC2)cc1	inconclusive [inhibitor, single point]	–
O=C(/C=C/c1ccc(Br)cc1)N1CCN(Cc2ccccc2)CC1	inconclusive [inhibitor, single point]	–
O=C(Cn1cnc2c(oc3ccccc32)c1=O)N1CCCC1	–	inactive: 2.06%
CC(C)N(C(=O)c1ccc(Cc2cn(C)c3ccccc23)nc1)C(C)C	inconclusive [inhibitor, single point]	–
COc1ccc(NC(C)=O)cc1S(=O)(=O)N1CCN(Cc2cccs2)CC1	–	inactive: 7.49%
CCOc1ccc(OCC)c(NC(=O)c2c(C)nn(-c3ccccc3)c2-n2cccc2)c1	inconclusive [inhibitor, single point]	–
Cc1ccc(C)c(NC(=O)CSc2nnc(CNC(=O)c3cccs3)o2)c1	–	inactive: -8.14%
O=C(CN1CCc2cc3c(cc2C1)OCCCO3)Nc1cccc(Br)c1	inconclusive [inhibitor, single point]	–
O=C(NNc1cc(Cl)cc(Cl)c1)c1sccc1Cl	inconclusive [inhibitor, single point]	–
O=C(Nc1ncc([N+](=O)[O-])s1)C1COc2ccccc2O1 (centres undefined)	active: 14.6 µM	–
CCN(C(=O)COC(=O)/C(=C/c1ccccc1)n1nnnc1C)C1CCCCC1	inconclusive [inhibitor, single point]	–
Oc1ccccc1/C=N/Nc1cccc2cccnc12	inconclusive [inhibitor, single point]	–
CCc1ccc(CNC(=O)c2sc3ncnc(N(C)C4CCCCC4)c3c2C)cc1	inconclusive [inhibitor, single point]	–
COc1ccc(-c2cc(-c3cccs3)c(C#N)c(SCC(=O)NCc3ccco3)n2)cc1	active: 1.84 µM	–
O=C1c2ccccc2C(=O)N1C(CO)C(O)c1ccc([N+](=O)[O-])cc1 (centres undefined)	–	inactive: 9.26%
CC12CCC(C)(O1)C1C(=O)N(c3nccs3)C(=O)C12 (centres undefined)	–	inactive: 12.7%
CCC(=O)N1c2ccc(S(=O)(=O)NCc3ccco3)cc2CC1C (centres undefined)	inconclusive [inhibitor, partial curve]	–
Cc1oc2ncnc(N3CCCCC3)c2c1C(=O)Nc1cccc(F)c1	inconclusive [inhibitor, single point]	–
O=S(=O)(NC(=S)NC1CCCCC1)c1ccc(Br)cc1	–	inactive: 10.1%
CC(C)(C)S(=O)N1Cc2cc(C(=O)NCc3ccc4c(c3)OCO4)nc(-c3cccc(-c4cc5ccccc5o4)c3)c2[C@@H]1CCO (some centres undefined)	inconclusive [inhibitor, single point]	–
CCOC(=O)C1=C(COC(=O)c2ccc(OC(C)C)cc2)NC(=O)NC1C (centres undefined)	–	inactive: -19.1%

SMILES	Potency	activity change, negative = growth inhibition
COc1ccc([C@@H]2Sc3cc(OC)ccc3N(CCN(C(C)C)C(C)C)C(=O)[C@H]2OC(C)=O)cc1	active: 20.6 µM	–
O=C(Cc1cccc2ccccc12)Nc1ccc(Br)cc1C(=O)O	inconclusive [inhibitor, single point]	–
Cc1ccc2c(c1)c1ncn(Cc3ccc(F)cc3)c(=O)c1n2C	inconclusive [inhibitor, single point]	–
CC1CC(C)(C)CC2(C1)NC(=O)N(CC(=O)NCCc1c[nH]c3ccccc13)C2=O (centres undefined)	–	inactive: 10.1%
CC(C)CC1=NN(C(=O)c2ccncc2)C(O)(C(F)(F)F)C1 (centres undefined)	active: 2.91 µM	–
COc1cc(C(=O)Nc2ccccc2SCc2cc(=O)n3nc(C)sc3n2)cc(OC)c1OC	inconclusive [inhibitor, single point]	–
O=[N+]([O-])c1cccc(C(=Nc2cccc(Cl)c2)NO)c1	inconclusive [inhibitor, partial curve]	–
COc1ccc(NC(=O)c2cccc(Cn3cc(Br)cn3)c2)cn1	–	inconclusive: -33% [inhibitor]
CC(=O)Nc1c(C(=O)N2CCCCCC2)cnn1-c1ccccc1Cl	–	inactive: 1.51%
CC(=O)c1ccc(N2CCN(C(=O)Nc3ccc(F)cc3F)CC2)cc1	inconclusive [inhibitor, single point]	–
CCCc1ccc2oc(C(=O)N3CCCC3)c(C)c2c1	–	inconclusive: -32.8% [inhibitor]
CCOC(=O)c1c2n(c3c(NCc4ccccc4)ncnc13)CCCC2	inconclusive [inhibitor, single point]	–
CN(C)S(=O)(=O)c1cccc(NC(=O)C(c2ccccc2)c2ccccc2)c1	inconclusive [inhibitor, single point]	–
CCOC(=O)CC1C(=O)NCCN1C(=O)Nc1ccccc1 (centres undefined)	–	inactive: 3.45%
Cc1cccc(Nc2c([N+](=O)[O-])c(=O)oc3ccccc23)c1	–	inactive: -13.1%
CCOc1ccccc1C1Nc2ccccc2-c2nnc(SCc3ccccc3)nc2O1 (centres undefined)	inconclusive [inhibitor, single point]	–
CC(=O)c1cn(CC(=O)Nc2c(C)cccc2C)c2ccccc12	active: 10.3 µM	–
CCO[C@@H]1OC(C(=O)N2CCN(C)CC2)=C[C@H](c2csc3ccccc23)[C@H]1CCCO	–	inactive: -1.48%
Cc1[nH]n(-c2ccc([N+](=O)[O-])cc2)c(=O)c1C=NCCN1CCN(C(=O)c2ccc(Br)cc2)CC1	active: 18.4 µM	–
Cc1ccc(-c2nnc(SCC(=O)NC3CCCC3)n2N)cc1	–	inactive: 4.56%
COc1ccc(S(=O)(=O)N2N=C(c3ccc(NS(C)(=O)=O)cc3)CC2c2ccco2)cc1 (centres undefined)	inconclusive [inhibitor, single point]	–
COc1ccc(C(N)c2csc(NC(=O)Nc3cccc(C(F)(F)F)c3)n2)cc1 (centres undefined)	active: 18.4 µM	–
O=C(OCc1nnc(-c2ccccc2)o1)C1CC(=O)N(Cc2ccco2)C1 (centres undefined)	–	inactive: -18.4%
COc1ccc(Nc2cc(C(=O)NCCCN(C)C3CCCCC3)c3ccccc3n2)cc1	active: 14.6 µM	–
Cc1c(C(=O)NCc2ccccc2)oc2c1-c1[nH]ncc1CC2	inconclusive [inhibitor, single point]	–

SMILES	Potency	activity change, negative = growth inhibition
COc1cc(NC(=O)CN(c2ccc(C)cc2)S(=O)(=O)c2c(C)noc2C)cc(OC)c1	active: 18.4 µM	–
O=C(c1ccc2c(c1)OCO2)N(Cc1cc2ccc(F)cc2nc1N1CCC(O)CC1)CC1CCCO1 (centres undefined)	–	inactive: 5% [at 9.04 µM]
O=C(O)COc1ccccc1/C=N/NC(=O)c1cc(-c2ccccc2)nc2ccccc12	–	inactive: -26.8%
Cc1ccc(NC(=O)/C=C\C(=O)O)c([N+](=O)[O-])c1	–	inactive: -0.578%
COc1ccc(OC)c2c1CCC2=O	–	inactive: 5.9%
N#Cc1nc(-c2ccc(F)cc2)oc1NCc1ccco1	–	inactive: -20.5%
Cc1cc(NC(=O)CCC(=O)N(CC(=O)NC2CCCC2)Cc2ccc(F)cc2)no1	–	inactive: -3.63%
COc1ccc(-c2cc3ccccc3oc2=O)cc1NC(=O)c1cccnc1	inconclusive [inhibitor, partial curve, poor fit]	–
N=c1oc2cc(O)ccc2cc1C(=O)Nc1ccc(Br)cc1	inconclusive [inhibitor, single point]	–
CCCN(C(=O)Cn1nc(Cc2ccncc2)c2ccccc2c1=O)c1ccccc1C	inconclusive [inhibitor, single point]	–
CCn1c(CCCNC(=O)c2cccs2)nc2ccccc21	inconclusive [inhibitor, single point]	–
CCn1nc(C)c(CN2CCC(n3nccc3NC(=O)c3ccccc3OC)CC2)c1C	–	inactive: -24.4%
CC1=C(c2ccccc2)SC2=NCCN21	inconclusive [inhibitor, partial curve, poor fit]	–
CCOC(=O)C1CCN(C(c2cccnc2)c2c(NC(=O)c3ccco3)sc(C)c2C)CC1 (centres undefined)	active: 1.64 µM	–
COc1ccc(OCC(=O)N2CCN(c3nnc(-c4ccc(C)cc4)c4ccccc34)CC2)cc1	active: 16.4 µM	–
O=[N+]([O-])c1ccc(N/N=C2/CCCCC2c2ccccn2)cc1 (centres undefined)	–	inactive: -26.8%
Cc1cc(O)c(CN2CCN(c3ccc(F)cc3)CC2)c2oc(=O)cc(C)c12	inconclusive [inhibitor, single point]	–
Cc1ccc(NC(=O)C(C)OC(=O)Cn2[nH]c(=O)c3ccccc3c2=O)cc1 (centres undefined)	–	inactive: -23.9%
CCc1ccc2c(c1)C1(C(=O)N2)N2CCCC2C(C(=O)c2ccc3ccccc3c2)C12C(=O)Nc1ccccc12 (centres undefined)	inconclusive [inhibitor, single point]	–
CC1N=C(SCC(=O)c2ccc(F)cc2)N2C(C)N=C(SCC(=O)c3ccc(F)cc3)N12 (centres undefined)	active: 4.11 µM	–
CC(C)(C)N1C(=O)[C@H]2[C@@H](c3ccc(Br)cc3)N3C(=O)N(c4ccccc4)C(=O)[C@@]3(Cc3ccccc3)[C@H]2C1=O	inconclusive [inhibitor, single point]	–
COc1cccc(C2=CC(c3ccccc3)n3nnnc3N2)c1 (centres undefined)	active: 5.8 µM	–
S=c1nc(-c2ccccc2Cl)n(Cc2cccnc2)c2c1CCCC2	–	inactive: -17.4%
COc1ccc(Br)cc1CNC(=O)c1ccc(-n2c(C)cc3c2CCC(C)C3)cc1 (centres undefined)	active: 23.1 µM	–
